# Assay results: PMC4336329 (PLoS ONE, 2015)
# Out of some 310,000 compounds screened, about 14,000 (4.5%) showed an effect of 50% or more. Effects have a minus sign here. The list shows a part of the results.
# Molecular target: human ether-à-go-go-related gene (hERG) potassium channel (human, UniProt Q12809)
# Assay: primary screen, population patch clamp on CHO cells stably expressing hERG
# 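Also: peak tail current of the secondary pulse compared with the same well before compound.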
# Sequence of human ether-à-go-go-related gene (hERG) potassium channel (Q12809 whole entry, looked up): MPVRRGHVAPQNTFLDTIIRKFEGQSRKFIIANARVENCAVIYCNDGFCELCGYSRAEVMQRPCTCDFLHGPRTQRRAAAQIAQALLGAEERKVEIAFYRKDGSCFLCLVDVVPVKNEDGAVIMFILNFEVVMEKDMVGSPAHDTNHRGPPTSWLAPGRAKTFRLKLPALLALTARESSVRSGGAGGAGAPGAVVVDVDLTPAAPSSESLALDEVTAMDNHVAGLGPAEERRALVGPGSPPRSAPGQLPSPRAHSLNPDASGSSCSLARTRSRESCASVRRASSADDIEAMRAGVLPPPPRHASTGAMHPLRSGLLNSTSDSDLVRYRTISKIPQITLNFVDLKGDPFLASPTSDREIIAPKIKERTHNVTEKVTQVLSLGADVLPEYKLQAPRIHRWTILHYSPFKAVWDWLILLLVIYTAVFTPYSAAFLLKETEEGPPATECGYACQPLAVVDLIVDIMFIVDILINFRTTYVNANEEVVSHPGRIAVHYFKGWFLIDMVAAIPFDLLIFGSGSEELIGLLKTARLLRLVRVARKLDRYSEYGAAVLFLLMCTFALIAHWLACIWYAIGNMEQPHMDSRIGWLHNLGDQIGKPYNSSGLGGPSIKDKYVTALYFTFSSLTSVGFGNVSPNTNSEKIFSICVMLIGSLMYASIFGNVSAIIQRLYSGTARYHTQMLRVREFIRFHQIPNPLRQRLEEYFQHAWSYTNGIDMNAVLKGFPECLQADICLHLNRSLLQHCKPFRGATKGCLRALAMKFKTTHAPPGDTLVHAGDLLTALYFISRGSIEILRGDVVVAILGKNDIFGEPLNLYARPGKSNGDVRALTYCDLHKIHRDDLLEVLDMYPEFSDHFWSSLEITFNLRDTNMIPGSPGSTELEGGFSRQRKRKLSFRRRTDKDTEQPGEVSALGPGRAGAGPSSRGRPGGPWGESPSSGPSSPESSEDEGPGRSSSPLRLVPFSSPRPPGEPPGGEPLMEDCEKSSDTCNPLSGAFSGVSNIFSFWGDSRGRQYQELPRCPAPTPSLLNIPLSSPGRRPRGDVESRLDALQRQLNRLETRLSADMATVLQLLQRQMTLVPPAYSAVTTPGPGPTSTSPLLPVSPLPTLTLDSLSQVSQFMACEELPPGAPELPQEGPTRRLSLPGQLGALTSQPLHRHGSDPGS
row,SMILES,"hERG current change (%, negative = inhibition) at 10uM"
1,C/C(=N\NS(=O)(=O)c1ccccc1)c1ccc2c(c1)OCCO2,2.11%
2,NC(=O)c1ccccc1NC(=O)C1CCCO1 (centres unmarked),8.51%
3,CCn1c(CSc2ncccn2)nnc1SCC(=O)N1CCCCC1,54.8%
4,COc1ccc(/C(N)=N/OC(=O)Cc2cccs2)cc1OC,9.58%
5,CC(C)Cn1c(=O)[nH]c(=O)c2c(C(F)(F)F)cc(-c3ccccc3)nc21,8.72%
6,Cc1ccc(N2C(=O)CC(Sc3nc4ccccc4o3)C2=O)cc1Cl (centres unmarked),18.9%
7,Cc1ccc(S(=O)(=O)N2CC2(C)CCl)cc1 (centres unmarked),11.5%
8,Cc1cccc(NC(=O)CN2C(=O)CCS(=O)(=O)c3ccccc32)c1C,3.24%
9,Cc1cc(N2CCOCC2)ccc1/C=C1\NC(=O)N(Cc2ccccc2F)C1=O,15.8%
10,CNC(=O)NCC12CC3CC(CC(C3)C1)C2,-5.63%
11,Cc1nn(C2CCS(=O)(=O)C2)c(C)c1CN(C)C(=O)c1ccc(Cl)cc1 (centres unmarked),-14.9%
12,CC(C)C[C@@H](CO)N1CCN(CCCc2ccccc2)CCC1=O,-31.1%
13,COC(=O)C1(C(=O)O)Cc2cc([N+](=O)[O-])ccc2N2CCCC21 (centres unmarked),-3.64%
14,CCC1CCCCN1S(=O)(=O)c1ccc(S(=O)(=O)N(Cc2cccs2)C2CC2)cc1 (centres unmarked),4.77%
15,OCCC1CN(Cc2c(O)ccc3ccccc23)CCN1CCc1ccccc1 (centres unmarked),-27.1%
16,CO/N=C/CC(=O)c1ccc(-c2ccccc2)cc1,16.7%
17,O=c1c(Cc2ccc(F)cc2)c(O)ccn1Cc1ccc(F)cc1,13.3%
18,CCCn1nc(CC(=O)OCC)c2ccccc2c1=O,0.251%
19,O=C(O)c1cc(Cl)c2ccccc2c1O,-5.41%
20,Cc1ccc(C(=O)NCC(=O)OCC(=O)c2ccc3c(c2)NC(=O)CO3)cc1C,-5.7%
21,CC1(C)C2(C#N)C(N)=NC3(OCCO3)C12C#N (centres unmarked),23.4%
22,COc1cc(OC)cc(C(=O)Nc2cccc(-c3ccc4nncn4n3)c2)c1,25.1%
23,CCOc1cc(CNn2cnnc2)ccc1OCC(=O)NC1CCCCC1,8.74%

row,SMILES,"hERG current change (%, negative = inhibition) at 10uM"
1,CCOC(=O)c1cc2occc2n1CC(=O)N1CCOCC1,6.95%
2,O=C(N/N=C\c1ccc2c(c1)OCO2)c1ccco1,6.5%
3,CCOc1ccc(/C=N/NC(=O)NC23CC4CC(CC(C4)C2)C3)cc1O,-10.9%
4,C=CCCC(=O)Nc1ccc(Br)cn1,11.3%
5,O=C(CNc1cccc2ccccc12)N/N=C/c1ccc[nH]1,10.7%
6,COc1ccc(-c2nnc(SCC(=O)c3cccs3)n2-c2ccc(Cl)cc2)cc1,-16.2%
7,CC1CCCCN1C(=O)CSc1nc2ncccc2[nH]1 (centres unmarked),13.7%
8,O=C(CCCCCN1C(=O)c2ccccc2C1=O)Nc1ccc(F)cc1,-0.382%
9,CCn1cc2nc(SCC(=O)Nc3ccccc3F)n(Cc3ccccc3)c(=O)c2n1,-70.6%
10,O=C(NCc1ccco1)Nc1ccc(Br)cc1,3.85%
11,COC(=O)c1ccccc1NS(C)(=O)=O,17.1%
12,Cc1cc(/C=C2/C(=O)N(C)C(=S)N2C)c(C)n1C1CC1,4.03%
13,CN(C)c1nc(Oc2ccc(=O)n(-c3ccccc3)n2)nc(N2CCOCC2)n1,9.19%
14,Cc1ccc(-n2cccc2/C=N/n2cnnc2)cc1Cl,-12.5%
15,Cc1ccc(-c2csc3ncnc(SCC(=O)NCc4ccc5c(c4)OCO5)c23)cc1,-0.903%
16,CC(C)Oc1cccc(C(=O)C2CCCN(Cc3cnn(C(C)C)c3)C2)c1 (centres unmarked),-36.3%
17,Cc1ccc(S(=O)(=O)Cn2nnnc2C(CC(C)C)N2CCC(C(N)=O)CC2)cc1 (centres unmarked),-12.2%
18,CC(=C/c1ccccc1)/C=N/N1CCN(Cc2ccc(C)cc2)CC1,-22.9%
19,Cc1cccc(C(=O)OCC(=O)NCc2cccs2)c1,7.82%
20,Cc1cccc(C)c1NC1=NC(=S)N(c2ccccc2)C12CCOC(C)(C)C2 (centres unmarked),17.4%
21,Cc1nnsc1C(=O)N1CCC(C(=O)c2ccccc2)CC1,3.74%
22,CCCCCOc1ccccc1C(=O)NCCC(=O)O,16.7%
23,COc1ccc(CNS(=O)(=O)c2cc3c(cc2Cl)NC(=O)CO3)cc1,-24.7%

row,SMILES,"hERG current change (%, negative = inhibition) at 10uM"
1,Cc1cccc(C(=O)NC2CCN(CC(=O)NCc3ccccc3F)CC2)c1,-33.2%
2,COc1ccc2nc(NC(=O)C3CCN(S(=O)(=O)c4cccnc4)CC3)sc2c1,-29.8%
3,CCC(=O)NCCc1nc2cc(NC(=O)c3ccco3)ccc2n1C,24.6%
4,COc1cccc(CNC(=O)C2CCN(S(=O)(=O)N3CC(C)CC(C)C3)CC2)c1 (centres unmarked),-8.41%
5,COc1ccc(OC)c(NC(=O)C2CCN(S(=O)(=O)c3cccs3)CC2)c1,-3.74%
6,CC(C)(C)OC(=O)NCc1ccc(CNC(=O)c2nc[nH]c2C(=O)NCc2ccccc2)cc1,2.7%
7,COC(=O)CSc1nc2c(c(C3CC=CCC3)c1C#N)CCC2 (centres unmarked),8.72%
8,Cc1ccc(CS(=O)(=O)CC(C)(O)c2ccc(Cl)cc2)cc1 (centres unmarked),-9.67%
9,CCN(CC)C(=O)C12CC3CC(CC(Cl)(C3)C1)C2,-9.36%
10,CCOC(=O)c1c(NC(C)=O)sc2c(OC)cccc12,3.77%
11,C/C(=N\NC(=O)c1ccoc1C)c1cccnc1,4.84%
12,Cc1ccc(CC2SC(=Nc3ccccc3)N(c3ccccc3)C2=O)cc1 (centres unmarked),3.38%
13,COc1ccccc1NCC(=O)NNC(C)C(=O)Nc1cccc(Cl)c1 (centres unmarked),-6%
14,Cc1c(OCC(=O)NC(Cc2ccc(Cl)cc2)C(=O)O)ccc2c3c(c(=O)oc12)CCC3 (centres unmarked),-6.21%
15,CC(C)=C(NC(=O)c1ccccc1)C(=O)N/N=C/c1ccc(O)cc1,-4.47%
16,NC(=O)C(c1ccc(Br)cc1)c1ccc(C(=O)c2ccccc2)cc1 (centres unmarked),-7.84%
17,CC(=O)Nc1ccc(NC(=S)NC(=O)c2ccc(-c3ccccc3)cc2)cc1,15.7%
18,Cc1ccc(NC(=O)CC2NCCNC2=O)cc1 (centres unmarked),-6.75%
19,Clc1ccc(-c2nc3cnccn3c2NC2CCCC2)cc1,-7.75%
20,CC(C)CC(O)C1CCN(C(=O)CCc2nnc(-c3ccccc3)o2)CC1 (centres unmarked),-9.35%
21,Cc1ccc(OCCn2cc(C#N)c3ccccc32)cc1,-7.95%
22,Cc1ccc(C2SCC(=O)N2Cc2ccccc2)cc1 (centres unmarked),-20.9%
23,c1csc(CSc2nc3ccccc3s2)c1,7%

row,SMILES,"hERG current change (%, negative = inhibition) at 10uM"
1,Cc1ccccc1-c1nc(C#N)c(NCc2ccco2)o1,-57.2%
2,CCc1ccc2c(CN3CCN(S(=O)(=O)c4cccs4)CC3)cc(=O)oc2c1,-20.2%
3,COc1ccc(-c2nnn(CC(=O)NCCc3ccc(OC)c(OC)c3)n2)cc1,18.8%
4,Cc1ccc(C)c(-n2c3nc(=O)n(C)c(=O)c-3cc3ccccc32)c1,-2.75%
5,Nc1c(C(=O)NCc2ccccc2)nnn1Cc1ccccc1,7.33%
6,Cn1c(=O)c2c(ncn2CC(=O)N/N=C/C=C/c2ccccc2)n(C)c1=O,-23.1%
7,NS(=O)(=O)c1ccc(NC(=O)COC(=O)CSc2n[nH]c(-c3ccccc3)n2)cc1,12%
8,Cc1c(NC(=O)CSc2nccn2C)c(=O)n(-c2ccccc2)n1C,10.9%
9,Nc1nc(C(F)(F)F)c(Br)c(=O)n1N,-1.14%
10,COc1ccc(C2CC(c3cccs3)=NN2C(=O)CN2CCCCC2)cc1 (centres unmarked),-71.9%
11,O=C1OCC/C1=C\OCCCO/C=C1\CCOC1=O,19.8%
12,O=C(N/N=C/c1sc2ccccc2c1O)c1ccccc1,-6.43%
13,CCOc1ccc2nc(NCCNC(=S)NCCCN(C)C)c(C#N)cc2c1,1.89%
14,O=C(O)C1SCCN1S(=O)(=O)c1ccc(N=NN2CCOCC2)cc1 (centres unmarked),-1.95%
15,CC(=O)Nc1ccc(NC(=O)C(C)OC(=O)/C(C#N)=C/c2ccc(N(C)C)cc2)cc1 (centres unmarked),5.39%
16,O=C(c1cccs1)N1CCN(C(=O)N2CCOCC2)CC1,16.6%
17,CC(OC(=O)C(C)Oc1ccccc1)C(=O)Nc1ccc(S(=O)(=O)N2CCCCC2)cc1 (centres unmarked),4.39%
18,COc1ccc2c(c1)CC1(CN2C)C(=O)NC(=O)N(c2ccc(C)cc2)C1=O (centres unmarked),14.5%
19,COc1ccc2c(CC(=O)OCC(=O)Nc3cc(C)c(C)cc3[N+](=O)[O-])coc2c1,5.69%
20,Cc1oc(-c2cccs2)nc1CN1CCN(CC(C)C)C(CCO)C1 (centres unmarked),5.96%
21,COCC(=O)N1CCCc2ccccc21,5.29%
22,Cc1ncc([N+](=O)[O-])n1CC(=O)NCCc1ccccc1,9.06%
23,COc1ccc(CCN2C(=O)CN=C2Nc2ccc(F)cc2)cc1OC,15.1%
